Measurements taken from PubChem BioAssay AID662 (National Center for Advancing Translational Sciences (NCATS), 2007).
The campaign covered roughly 71,000 compounds. About 1,800 (2.5%) were called active. The shares of active, inactive and inconclusive entries below differ from those in the screen. Calls follow the shape of the dose curve; as a rule, active = well fitted activation curve with a large enough effect in the signal ratio, with a control signal flat (not every such curve was filed as active); inconclusive = small, poorly fitted or top-dose-only effect, or effect the other way, or a change in a side signal; inactive = flat fitted curve, though single readings scatter; the % refers to the signal ratio. Where the call is inconclusive, the potency comes from a doubtful curve fit.
Potency is read from the fitted curve at half-maximal effect; tags tell the direction and shape of the fitted curve.

Experiment: Cell signaling CRE-BLA (Fsk stim); as to activity change, negative = inhibition: % of control where 0% means no effect
Conditions: CHO CRE-bla reporter (cAMP response element driving beta-lactamase), forskolin EC10, beta-lactamase ratio; activity change, negative = inhibition: at 38.2 µM (top of the series) unless noted
Summary of the method: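 CRE-bla CHO reporter cells treated with compound titration plus EC10 NKH 477 (water-soluble forskolin), incubated 3 h at 37 °C; CCF4 loading 2 h at room temperature, 460/530 nm emission ratio read, AC50 values derived for positive or negative modulators.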
With `CNc1ncnc2ccc(-c3cccc(OC)c3)cc12` the activity change, negative = inhibition was inconclusive: 17.5%.
In the case of `CCOC(=O)c1ccccc1NC(=O)COC(=O)c1ccc(C)c(S(=O)(=O)N2CCOCC2)c1`, the Potency is reported as inconclusive: 5.01 µM [rising, single point].
With `COc1ccccc1CN(CC(=O)NCC1CCCO1)C(=O)CNS(=O)(=O)c1ccc(C)cc1` (configuration not stated) the “activity change, negative = inhibition” value was inactive: -6.66%.
In the case of `CC(=O)Nc1nonc1NC(=O)CSc1ncn[nH]1`, the “activity change, negative = inhibition” value is reported as inactive: -0.414%.
With `C[C@@]12C=CC(=O)C=C1CC[C@@H]1C2=CC[C@]2(C)[C@@H]1CC[C@H]2C(=O)CN1CCN(c2cc(N3CCCC3)nc(N3CCCC3)n2)CC1` the “activity change, negative = inhibition” value was inactive: -8.27%.
In the case of `CC(=O)Nc1nonc1NC(=O)CSc1nc2ccccc2o1`, the activity change, negative = inhibition is reported as inconclusive: 8.83%.
For `O=C(OCCn1cncn1)c1cc2ccccc2oc1=O`, the activity change, negative = inhibition was inconclusive: 17.6%.
For `O=C(CCN1CCOCC1)Nc1ccc(F)cc1F`, the activity change, negative = inhibition was inconclusive: -1.81% [at 7.6 µM].
With `Cc1cc(C)c(/C=C2/C(=O)Nc3ccccc32)[nH]1` the activity change, negative = inhibition was inconclusive: -27.1%.
With `CC1CN(c2nn3c(=O)c4ccccc4nc3c3ccccc23)CC(C)O1` (configuration not stated) the Potency was inconclusive: 5.01 µM [rising, partial curve].
For `CC(C)c1nc(SCC(=O)Nc2cccc(C(F)(F)F)c2)c2c(=O)n(C)c(=O)n(C)c2n1`, the Potency was active: 3.16 µM.
For `COc1ccc(CN(Cc2cc3cccc(C)c3[nH]c2=O)C(=O)N(C)C)cc1`, the “activity change, negative = inhibition” value was inactive: -3.55%.
With `C=C1CC[C@H](O)C/C1=C/C=C1\CCC[C@]2(C)[C@H]1CC[C@H]2[C@@H](C)/C=C\[C@@H](C)C(C)C` the “activity change, negative = inhibition” value was inactive: -1.89% [at 17.1 µM].
With `COc1ccc(S(=O)(=O)N2CCCC(C(=O)O)C2)cc1Cl` (configuration not stated) the Potency was inconclusive: 5.01 µM [rising, single point].
For `O=C(NCc1cccs1)c1ccc(N2CCCCC2)nc1`, the Potency was inconclusive: 10 µM [rising, single point].
With `C/C=C/Cn1c(SC)nc2c1c(=O)[nH]c(=O)n2C` the Potency was active: 10 µM.
With `O=C(c1ccco1)N1CCN(/C(=N/S(=O)(=O)c2cccs2)c2ccccc2Cl)CC1` the activity change, negative = inhibition was inconclusive: -3.84%.
For `Cc1ccccc1-c1cncnc1Nc1ccc(F)cc1`, the “activity change, negative = inhibition” value was inactive: -5.21%.
With `O=C(O)CCCC(=O)Nc1cccc2cccnc12` the activity change, negative = inhibition was inconclusive: -11%.
With `CC(=O)Nc1c(C(=O)c2ccccc2)oc2ccccc12` the activity change, negative = inhibition was inconclusive: 29.9%.
In the case of `CCOCCOC(=O)C1=C(C)NC2=C(C(=O)CC(c3cccs3)C2)C1c1ccsc1` (configuration not stated), the activity change, negative = inhibition is reported as inconclusive: 14.5%.
With `Cc1ccc(S(=O)(=O)N=Nc2c(O)[nH]c3cc(O)c(C(=O)O)cc23)cc1` the activity change, negative = inhibition was inactive: 8.33% [at 7.6 µM].
With `CCOC(=O)CCC(=O)N1CCNC(=O)C1` the “activity change, negative = inhibition” value was inactive: 20%.
In the case of `CCC(=O)c1ccc(OCCSc2ncccn2)cc1`, the “activity change, negative = inhibition” value is reported as inactive: 14.5%.
For `COc1cccc(-c2cncnc2-n2ccnc2)c1`, the activity change, negative = inhibition was inconclusive: 26.9%.
With `CC(=O)Nc1ccc2nc(C3CCCCC3)[nH]c2c1` the activity change, negative = inhibition was inconclusive: 14.7%.
With `O=C(Nc1cccc(Cl)c1N1CCCC1)c1cc2ccccc2o1` the Potency was inconclusive: 10 µM [rising, partial curve].
For `CCc1ccc(-c2nc(CSCC(=O)N3CCN(c4ccccn4)CC3)c(C)o2)cc1`, the activity change, negative = inhibition was inconclusive: -19.7%.
In the case of `Cc1ccc(SCc2[nH]nc3c2C(c2ccco2)C(C#N)=C(N)O3)cc1` (configuration not stated), the activity change, negative = inhibition is reported as inconclusive: 12.7% [cytotoxic].
In the case of `O=c1oc2c3c4c(cc2c2c1CCC2)OCCN4CCC3`, the Potency is reported as active: 12.6 µM.
In the case of `Cn1c(=Nc2ccc(N3CCOCC3)cc2)ccc2ccccc21`, the “activity change, negative = inhibition” value is reported as inactive: 1.15%.
With `COC(=O)c1ccccc1NC(=O)c1cc(-c2ccc(OC)c(OC)c2)on1` the Potency was inconclusive: 3.98 µM [rising, single point].
For `N#Cc1nc(Cc2cccc3ccccc23)oc1NCC1CCCO1` (configuration not stated), the Potency was inconclusive: 10 µM [rising, partial curve].
For `COc1ccccc1CNc1ncnc2ccc(-c3c(C)noc3C)cc12`, the Potency was inconclusive: 10 µM [rising, partial curve].
For `CCOc1ccccc1C1NC(=O)NC(C)=C1C(=O)OC1CCCCC1` (configuration not stated), the activity change, negative = inhibition was inconclusive: 25.8%.
With `O=C(c1ccncc1)N1C2C=CC(C2)C1(C(F)(F)F)C(F)(F)F` (configuration not stated) the “activity change, negative = inhibition” value was inactive: -15.3%.
For `c1ccc(Cn2nnnc2C(c2ccncc2)N2CCOCC2)cc1` (configuration not stated), the Potency was inconclusive: 5.01 µM [rising, single point].
In the case of `Cn1nc(-c2ccc(N3CCOCC3)c(NC(=O)c3ccccc3)c2)c2ccccc2c1=O`, the Potency is reported as active: 7.94 µM.
For `COC(=O)c1cccnc1-n1c(=O)c2cccnc2n(Cc2ccc(Cl)cc2)c1=O`, the activity change, negative = inhibition was inconclusive: -6.81%.
In the case of `COc1cc2c(cc1OC)CN(C(=O)c1cc(S(=O)(=O)N3CCOCC3)ccc1Cl)CC2`, the activity change, negative = inhibition is reported as inconclusive: -2.5%.
With `CC(C)C(=O)NCCn1ccc2ccccc21` the “activity change, negative = inhibition” value was inactive: -9.85%.
For `O=c1nc2ccccc2c2n1C[C@H](CN1CCN(c3ccccc3)CC1)N2`, the “activity change, negative = inhibition” value was inactive: -2.08%.
